SMILES strings stand for the structures.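 Cells were grown in 96-well plates and exposed to each compound for 48 hours at five concentrations; endpoints were interpolated linearly between bracketing concentrations, or set to the highest concentration if not reached. The concentration for 50% growth inhibition is given as GI50. At the TGI there is no net growth.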

Broadly, the GI50 is the concentration that inhibits growth by half. A word on the TGI: it is the concentration at which net growth stops. Low readings indicate more potent growth arrest, high ones less potent growth arrest.

This test has as its system NCI-H322M lung. As to the kind of experiment: DTP human tumour cell line panel, 48 h.
As to `COc1ccc(C(=O)/C=C/c2cc3c(cc2Br)OCO3)cc1S(N)(=O)=O`, the GI50 is 3.8 µM and the TGI amounted to 18.7 µM.
With `O=C(CSc1nnc(-c2ccc3nc(-c4ccc(Cl)cc4)[nH]c3c2)o1)Nc1ccc(Cl)cc1`, the GI50 was 1.92 µM and the TGI amounted to 4.84 µM.
For `CC(=O)Nc1ccc(-n2cnc3cc(-c4ccc(O)cc4)ccc32)cc1F`, the GI50 was 6.02 µM and the total growth inhibition concentration (TGI) was > 100 µM.
The like results for `c1n[nH]cc1-c1nc2ccc3[nH]ncc3c2c2c1CC1(CC2)COC1` were, in that order, 19.9 µM and 59.8 µM.
The like results for `CN1CCN(c2ccc3c(c2)nc(NNC(=O)c2cnccn2)c2cccn23)CC1` were, in that order, 0.165 µM and 8.13 µM.
For `CC(C)N=C([Se])NC(=O)c1cccs1`, in that order: 2.96 µM and 11.4 µM.

Values taken from PubChem BioAssay (NCI).
